Among all 52,000 compounds or so, about 4,300 (8.3%) were called active. No stated cut-off is given here; in the data, active means survival mostly below about 52% (no sharp cut-off); inactive means mostly above about 56%. Some of the results follow.
test system: DeltatarO mutant; assay: growth inhibition of S. aureus wild type versus tarO mutant, primary screen, teichoic acid synthesis inhibitors, RN4220, OD600 (AID 463173); conditions: OD600, 18 h, active compounds read low, screened at 18.75 µg/mL (by protocol)

For `Cc1c(CCC(=O)NCc2cccc(Cl)c2)c(=O)oc2c(C)c(O)ccc12`, which survival is on record?
Its survival is inactive: 77%.

For `COc1ccc(Nc2cc(C)c3ccccc3n2)cc1`, which survival is on record?
The survival was inactive: 96%.

How did the survival turn out when `CC(CNC(=O)c1ccc(CSc2nc3ccncc3n2Cc2ccccc2)cc1)c1ccccc1` (centres undefined) was run?
Its survival is inactive: 78%.

Which survival does the source give for `COc1ccc(CNC(=O)CSc2nc(-c3ccc(OC)c(OC)c3)cc(C(F)(F)F)n2)cc1` here?
The survival was inactive: 72%.

For `CN(C)S(=O)(=O)c1ccc(S(=O)(=O)N2CCC(c3nc4c(nnn4Cc4cccc(F)c4)c(=O)[nH]3)CC2)cc1`, which survival is on record?
The survival was inactive: 96%.

Which survival does the source give for `COc1cc(Cl)c(NS(=O)(=O)c2ccc(-c3cnc(C4CC4)o3)cc2)c(OC)c1` here?
The survival was inactive: 74%.

How did the survival turn out when `CC1CCCN(S(=O)(=O)c2ccc(S(=O)(=O)N3CCN(C=O)CC3)cc2)C1` (centres undefined) was run?
The survival was inactive: 100%.

With `O=C(Nc1nc2ccccc2s1)c1ccc(S(=O)(=O)N2CCCC2)cc1` as the compound, how does the survival read?
The survival was inactive: 99%.

How did the survival turn out when `O=S(=O)(c1ccc2nc(NCc3ccccc3Cl)ccc2c1)N1CCCCC1` was run?
Its survival is inactive: 72%.

`CCOc1ccc(C2C(=O)N(C3CCCCCC3)CC(=O)N2CCc2ccc(OC)c(OC)c2)cc1OC` (centres undefined) was tested. Which survival did it give?
The survival was inactive: 87%.

Which survival does the source give for `CCn1c(CNC(=O)c2ccc(OC)cc2)nnc1SCC(=O)Nc1ccc(C)cc1` here?
The survival was inactive: 126%.

Which survival does the source give for `Cc1cc2oc3c(c(=O)c2cc1C)C1(C(=O)N(C)c2ccccc21)N(CCO)C3=O` (centres undefined) here?
Its survival is inactive: 55%.

`COc1ccc(N2CC(NC(=O)c3ccco3)CC2=O)cc1` (centres undefined) was tested. Which survival did it give?
The survival was inactive: 58%.

`O=C(O)COCC(=O)Nc1ccc2c(c1)CCC2` was tested. Which survival did it give?
The survival was inactive: 103%.

How did the survival turn out when `Nc1cc(=O)nc(SCC(=O)Nc2ccc(F)cc2)n1CCc1ccccc1` was run?
The survival was inactive: 79%.

`COc1ccccc1NC(=O)C1CCN(C(=O)c2sc3nc[nH]c(=O)c3c2C)CC1` was tested. Which survival did it give?
Its survival is inactive: 80%.

Which survival does the source give for `O=C(Nc1ccccc1Br)C(Cc1ccccc1)NS(=O)(=O)c1cccc2nsnc12` (centres undefined) here?
The survival was inactive: 76%.

With `CCN(CC)CCNC(=O)c1ccc2nc(CCc3ccccc3)oc2c1` as the compound, how does the survival read?
Its survival is inactive: 95%.

Which survival does the source give for `CCOC(=O)c1cc(S(=O)(=O)N2CCN(c3ccc(C(C)=O)cc3)CC2)[nH]n1` here?
Its survival is inactive: 126%.

`COc1ccccc1N1CCN(c2cc(C)nc3nc(-c4ccc(C)cc4)nn23)CC1` was tested. Which survival did it give?
Its survival is active: 40%.

With `O=C(NCc1ccc(F)cc1)c1ccc(Nc2nc3ccccc3n3nnnc23)cc1` as the compound, how does the survival read?
Its survival is inactive: 52%.

Which survival does the source give for `Cc1c(C(=O)Nc2ccccc2F)sc2ncnc(N(C)C3CCCCC3)c12` here?
The survival was active: 37%.

How did the survival turn out when `CN1CCN(CCC(O)COc2ccc(OCC(O)CCN3CCN(C)CC3)cc2)CC1` (centres undefined) was run?
The survival was inactive: 95%.

Which survival does the source give for `O=C1C(=O)N(CC2CCCO2)C(c2ccccc2)/C1=C(/O)c1ccccc1` (centres undefined) here?
The survival was inactive: 94%.

Which survival does the source give for `Cc1cccc(CCNC(=O)CCc2c(C)nc3c4c(C)cc(C)nc4nn3c2C)c1` here?
The survival was inactive: 77%.

With `COc1ccc(CNC(=O)Cn2ncc3c([nH]c4ccccc43)c2=O)cc1` as the compound, how does the survival read?
The survival was inactive: 91%.

Which survival does the source give for `Cc1nn(-c2ccc(N3CCCC3)nn2)c(C)c1CCC(=O)Nc1ccc(F)cc1F` here?
Its survival is inactive: 73%.

For `CCc1cccc(C)c1NC(=O)Cn1c(=O)cc(C)c2c(C)nn(-c3cccc(F)c3)c21`, which survival is on record?
The survival was inactive: 85%.

How did the survival turn out when `Cc1c(CCNC(=O)c2ccco2)sc2nc(-c3ccc(F)cc3)nn12` was run?
Its survival is inactive: 67%.

For `Cc1ccc(NC(=O)CN2CCSc3ccc(S(=O)(=O)N4CCCC4)cc32)cc1`, which survival is on record?
The survival was inactive: 77%.

`CC(=O)c1ccc(NC(=O)Cn2c(-n3nc(C)cc3C)nc(C)c(C)c2=O)cc1` was tested. Which survival did it give?
The survival was inactive: 55%.

How did the survival turn out when `CCN(CC)c1cc2c(cc1F)c(=O)c(S(=O)(=O)c1ccc(OC)cc1)cn2Cc1ccccc1` was run?
The survival was inactive: 122%.

With `CCOc1ccccc1Nc1nnc(-c2cc3cc(OC)ccc3oc2=O)s1` as the compound, how does the survival read?
Its survival is inactive: 90%.

For `CCOC(=O)Cc1ccc(NC(=O)N2CCC(CN3CCCCCC3)CC2)cc1`, which survival is on record?
Its survival is inactive: 80%.

For `CCCCN(CC)C(=O)c1cc2c(=O)n3cccc(C)c3nc2n1C`, which survival is on record?
Its survival is active: 56%.

With `CCc1ccc(Oc2c(C(F)(F)F)oc3c(CN4CCC(C)CC4)c(O)ccc3c2=O)cc1` as the compound, how does the survival read?
Its survival is inactive: 79%.

With `Cc1ccc(S(=O)(=O)CC(=O)Nc2sc3c(c2C(N)=O)CCCC3)cc1` as the compound, how does the survival read?
The survival was inactive: 94%.

How did the survival turn out when `CCc1ccc(NC(=O)Cc2c(C(=O)O)c(C)cn2C)cc1` was run?
The survival was inactive: 87%.

`Cc1ccccc1Nc1c(-c2ccc(Br)o2)nc2ccc(Cl)cn12` was tested. Which survival did it give?
The survival was active: 37%.

`CC(C)CCNC(=O)Nc1ccc2c(c1)N(Cc1ccccc1)C(=O)c1ccccc1S2` was tested. Which survival did it give?
Its survival is inactive: 79%.

With `COc1cc(OC)c(NC(=O)c2cc(C)nc3c2c(C)nn3-c2ccc(C)cc2)cc1Cl` as the compound, how does the survival read?
Its survival is inactive: 103%.

For `COc1ccc(CCNC(=O)c2ccc3c(c2)N(Cc2ccc(Cl)cc2)C(=O)c2ccccc2S3)cc1OC`, which survival is on record?
The survival was inactive: 61%.

With `CCOc1ccc(-c2nn(CC(=O)NC3CCCC3)c3c2cnc2ccc(C)cc23)cc1` as the compound, how does the survival read?
The survival was inactive: 91%.

`Cc1cc(=O)n2nc(N(C)CC(=O)NCc3cccc(Br)c3)sc2n1` was tested. Which survival did it give?
The survival was inactive: 97%.

For `CCOc1ccc(OCC)c(NC(=O)Cn2nc(CC)n3c(cc4sccc43)c2=O)c1`, which survival is on record?
Its survival is inactive: 65%.

`CCCCN(CC)CCCNC(=O)Cn1ncc2c3ccccc3n(C)c2c1=O` was tested. Which survival did it give?
Its survival is inactive: 131%.

How did the survival turn out when `CCOc1ccc(S(=O)(=O)N(CC(=O)NCc2ccccc2OC)c2ccccc2)cc1` was run?
The survival was active: 37%.

`COc1cccc(CSc2nc3n(n2)C(CC(C)C)C(C(=O)Nc2ccccc2OC)=C(C)N3)c1` (centres undefined) was tested. Which survival did it give?
Its survival is inactive: 75%.

`COc1ccc(C(=O)N2CCC(C(=O)Nc3ccc(Cl)cc3)CC2)cc1` was tested. Which survival did it give?
The survival was inactive: 127%.

With `COc1cccc(CNC(=O)c2oc3c(c2C)-c2nn(Cc4cccc(Cl)c4)cc2CC3)c1OC` as the compound, how does the survival read?
The survival was inactive: 68%.

`COc1ccccc1C(=O)N1CCC(c2noc(-c3ccc(S(=O)(=O)N4CCCC4)cc3)n2)CC1` was tested. Which survival did it give?
Its survival is inactive: 98%.

`O=C(NCCc1ccc(Cl)cc1)c1ccc(CS(=O)Cc2ccccc2Cl)o1` (centres undefined) was tested. Which survival did it give?
Its survival is inactive: 61%.

With `CC(C)N(C)C1CCN(S(=O)(=O)c2ccc3[nH]c(=O)ccc3c2)CC1` as the compound, how does the survival read?
The survival was inactive: 60%.

Which survival does the source give for `CC(C)/C(N)=N/OC(=O)c1ccc(I)cc1` here?
The survival was inactive: 51%.

Which survival does the source give for `CC(C)CCn1c(=O)c2sccc2n2c(CCCC(=O)NCCc3ccccc3)nnc12` here?
The survival was inactive: 68%.

For `CCc1cccc(NC(=O)Cn2c(=O)n(CC(=O)NCCc3ccccc3)c(=O)c3ccccc32)c1`, which survival is on record?
The survival was inactive: 102%.

`CCN(CC)C(=O)c1csc(Nc2ccc(C)cc2)n1` was tested. Which survival did it give?
The survival was inactive: 87%.

With `CCCCc1nn2c(=O)cc(COC(=O)c3ccc(NC(=O)CCc4ccccc4)cc3)nc2s1` as the compound, how does the survival read?
Its survival is inactive: 80%.

For `CCOCCCN1C(=O)c2[nH]nc(-c3ccccc3O)c2C1c1ccc(CC)cc1` (centres undefined), which survival is on record?
Its survival is active: 39%.

For `CCOC(=O)c1oc2c(c1C)-c1nn(Cc3c(F)cccc3Cl)cc1CC2`, which survival is on record?
Its survival is inactive: 56%.

With `COCC(=O)N1CCC(c2nc3ccccc3[nH]2)CC1` as the compound, how does the survival read?
Its survival is inactive: 96%.

With `Cc1cccc(NC(=O)C2CCN(c3nc4ccccc4[nH]3)CC2)c1C` as the compound, how does the survival read?
Its survival is inactive: 81%.

With `Cc1ccc(C)c(CNC(=O)CCn2cccn2)c1` as the compound, how does the survival read?
The survival was inactive: 94%.

`O=C(Nc1ccc2nc(SCC(=O)N3CCCC3)sc2c1)c1cccc(Br)c1` was tested. Which survival did it give?
The survival was inactive: 57%.

`CCOC(=O)c1cnc2c(C(F)(F)F)cccc2c1Cl` was tested. Which survival did it give?
Its survival is inactive: 82%.

With `Cc1cc(N2CCN(c3cccc(C)c3C)CC2)n2nc(C)c(-c3ccc(Cl)cc3)c2n1` as the compound, how does the survival read?
The survival was inactive: 87%.

How did the survival turn out when `CCOc1ccc(C2c3c(oc4ccccc4c3=O)C(=O)N2c2nnc(C)s2)cc1OC` (centres undefined) was run?
The survival was inactive: 83%.

With `COc1ccc(-n2c(-c3ccco3)nc3c(cnn3-c3ccccc3C)c2=O)cc1` as the compound, how does the survival read?
Its survival is inactive: 125%.

How did the survival turn out when `Cc1ccccc1CNC(=O)c1cc2cc(S(=O)(=O)N3CCCCC3)ccc2n1C` was run?
Its survival is inactive: 102%.

How did the survival turn out when `Cc1ccc(C(C)C)c(OCCCn2c(=O)oc3ccccc32)c1` was run?
The survival was active: -3%.

`CC(CNS(=O)(=O)c1ccc2c(c1)CC(=O)N2C)c1ccccc1` (centres undefined) was tested. Which survival did it give?
The survival was inactive: 100%.

With `CCOC(=O)c1c(C)oc2nc(C)nc(NCCCN3CCN(c4ccc(F)cc4)CC3)c12` as the compound, how does the survival read?
The survival was inactive: 84%.

For `O=C(NC(=S)N1CCCC(C(F)(F)F)C1)c1ccc(F)cc1` (centres undefined), which survival is on record?
The survival was inactive: 87%.

For `COc1ccccc1NC(=O)c1ccc2oc(=O)c(S(=O)(=O)c3ccccc3)cc2c1`, which survival is on record?
The survival was inactive: 98%.

Which survival does the source give for `COc1ccc(C(=O)NCCn2cc(SCc3cc(C)ccc3C)c3ccccc32)cc1` here?
The survival was inactive: 57%.

`COc1cccc(NC(=O)C2CCN(c3nc4ccccc4nc3C(F)(F)F)CC2)c1` was tested. Which survival did it give?
Its survival is inactive: 55%.

Which survival does the source give for `Cc1cccc(Cn2nnc(C(=O)Nc3cc(C)ccc3C)c2N)c1` here?
Its survival is inactive: 100%.

How did the survival turn out when `Cc1cccc(C)c1NC(=O)CCCN1C(=O)CCn2nc(-c3cn(C)c4ccccc34)cc21` was run?
Its survival is inactive: 124%.

With `Cc1ccc(CNC(=O)CCCn2c(=O)c3ccccc3n(Cc3ccccc3C)c2=O)cc1` as the compound, how does the survival read?
Its survival is inactive: 70%.

For `CC(C)NC(=O)C1CCCN(c2ncnc3c2nc2n3CCCCC2)C1` (centres undefined), which survival is on record?
Its survival is inactive: 73%.

For `Cc1cccc(Cn2cnc3c(cnn3-c3ccc(Cl)cc3)c2=O)c1`, which survival is on record?
Its survival is inactive: 87%.

Which survival does the source give for `Cc1ccc(CN2CCN(C3CCN(C(=O)Nc4ccccc4C(F)(F)F)CC3)C(=O)C2=O)cc1` here?
The survival was inactive: 73%.

For `CCn1c(=O)cc(OCC(=O)N2CCN(c3ccccc3OC)CC2)c2ccccc21`, which survival is on record?
The survival was inactive: 68%.

`Cc1ccc(S(=O)(=O)n2nc(-c3ccco3)nc2NCc2ccccc2Cl)cc1` was tested. Which survival did it give?
The survival was inactive: 66%.

For `Cn1c(CNC(=O)CSc2nc(-c3cccc(Cl)c3)nc3cc(=O)[nH]n23)nc2ccccc21`, which survival is on record?
The survival was inactive: 120%.

How did the survival turn out when `CON(C)c1nc(Cl)nc(N(C)C)n1` was run?
The survival was inactive: 108%.

How did the survival turn out when `CCC(Oc1ccccc1)C(=O)Nc1ccc(OCc2cc(=O)n3ccccc3n2)cc1` (centres undefined) was run?
Its survival is inactive: 77%.

For `CCOc1ccc(CNC(=O)C2Cc3ccccc3N2C(=O)CC)cc1` (centres undefined), which survival is on record?
The survival was inactive: 71%.

For `COC(=O)c1ccccc1NC(=O)c1ccc2c(=O)n3c(nc2c1)CCCCC3`, which survival is on record?
The survival was inactive: 102%.

— PubChem BioAssay AID463173 (ICCB-Longwood Screening Facility, Harvard Medical School, 2010)
